# Measurements as given in the antibiotic and cytotoxicity screens of Wong et al. (2023).
# The list shows a part of the results.
# Tested on: HSkMC (human skeletal muscle cells)
# Assay: cytotoxicity call (relative viability < 0.9)
# Settings: 10 µM
row,SMILES,cytotoxicity call
1,C[C@H]1CCCCO[C@@H](CN(C)Cc2ccc(C(F)(F)F)cc2)[C@@H](C)CN([C@@H](C)CO)C(=O)c2cc(NC(=O)NC3CCCCC3)ccc2O1,active
2,COc1ccc(CNC(=O)C[C@@H]2C[C@H]3c4cc(NC(=O)NC5CCCC5)ccc4O[C@H]3[C@H](CO)O2)cc1,inactive
3,CC(=O)N1C[C@H](O)C[C@H]1C(=O)O,inactive
4,C[C@H](O)C#Cc1cnc2c(c1)C(=O)N([C@@H](C)CO)C[C@@H](C)[C@@H](CN(C)C(=O)Nc1ccc(C(F)(F)F)cc1)O2,inactive
5,C[C@@H]1CN([C@@H](C)CO)C(=O)c2cc(NC(=O)NC3CCCCC3)ccc2O[C@@H](C)CCCCO[C@H]1CN(C)C(=O)c1ccccc1,inactive
6,CO[C@@]1(NC(=O)[C@@H](C(=O)O)c2ccc(O)cc2)C(=O)N2C(C(=O)O)=C(CSc3nnnn3C)CO[C@@H]21,inactive
7,O=C(C[C@@H]1C[C@H]2c3cc(NS(=O)(=O)c4ccc(F)cc4)ccc3O[C@H]2[C@H](CO)O1)NCc1ccccn1,inactive
8,C[C@@H]1CCCCO[C@@H](CN(C)C(=O)Nc2ccc(C(F)(F)F)cc2)[C@H](C)CN([C@H](C)CO)C(=O)c2cc(N(C)C)ccc2O1,inactive
9,CC(C)CC#Cc1ccc2c(c1)O[C@H](CN(C)C(=O)NC1CCCC1)[C@@H](C)CN([C@H](C)CO)S2(=O)=O,inactive
10,COc1ccc(S(=O)(=O)Nc2cccc3c2O[C@@H](CN(C)Cc2ccncc2)[C@H](C)CN([C@H](C)CO)C3=O)cc1,inactive
11,COCCOC(=O)N1C(=O)[C@@]2(c3cc(C#CCCO)ccc31)[C@H](c1ccc(O)cc1)N1[C@H](c3ccccc3)[C@H](c3ccccc3)OC(=O)[C@H]1[C@@H]2C(=O)NC[C@H](O)c1ccccc1,inactive
12,COc1ccc(CN(C)C[C@H]2OCCCC[C@@H](C)Oc3ccc(NC(=O)Nc4ccc(C(F)(F)F)cc4)cc3C(=O)N([C@@H](C)CO)C[C@H]2C)cc1,active
13,C[C@@H]1CN([C@H](C)CO)C(=O)c2cc(NC(=O)NC3CCCCC3)ccc2O[C@@H](C)CCCCO[C@H]1CN(C)C(=O)CCC(F)(F)F,inactive
14,COc1ccc(S(=O)(=O)Nc2ccc3c(c2)CC(=O)N([C@@H](C)CO)C[C@@H](C)[C@@H](CN(C)S(=O)(=O)c2cn(C)cn2)O3)cc1,inactive
15,COCCCNC(=O)[C@@]1(Sc2ccc(C)cc2)CC(=O)N(C2CCCCC2)[C@@H]1c1ccc(CO)cc1I,inactive
16,C[C@@H]1CCCCO[C@@H](CN(C)CC2CCCCC2)[C@@H](C)CN([C@H](C)CO)C(=O)c2cc(NC(=O)Nc3ccccc3)ccc2O1,inactive
17,COc1ccc(CN(C)C[C@H]2OCCCC[C@H](C)Oc3ccc(NC(=O)c4ccccc4)cc3C(=O)N([C@H](C)CO)C[C@@H]2C)cc1,inactive
18,O=c1[nH][nH]c(=O)c(Cl)c1Cl,inactive
19,C[C@@H]1CCCCO[C@@H](CN(C)S(=O)(=O)c2ccccc2)[C@@H](C)CN([C@@H](C)CO)C(=O)c2cc(NS(C)(=O)=O)ccc2O1,inactive
20,CC(C)(C)C(=O)OCOP(=O)(COCCn1cnc2c(N)ncnc21)OCOC(=O)C(C)(C)C,inactive
21,COc1ccc(NC(=O)N(C)C[C@@H]2Oc3ncc(C#CC(C)(C)O)cc3C(=O)N([C@H](C)CO)C[C@@H]2C)cc1,inactive
22,COc1ccc(-c2cnc3c(c2)C(=O)N([C@@H](C)CO)C[C@H](C)[C@H](CN(C)C(=O)Cc2ccncc2)O3)cc1,inactive
23,NC(=O)c1cccc(N)c1,inactive
24,Cc1noc(C)c1NC(=O)Nc1ccc2c(c1)C(=O)N([C@H](C)CO)C[C@@H](C)[C@H](CN(C)Cc1ccc(C(F)(F)F)cc1)OCCCC[C@H](C)O2,inactive
25,COc1ccc(S(=O)(=O)N(C)C[C@H]2OCCCC[C@H](C)Oc3ccc(NS(=O)(=O)c4cn(C)cn4)cc3C(=O)N([C@H](C)CO)C[C@@H]2C)cc1,inactive
26,COc1ccc(C#Cc2ccc3c(c2)[C@]2(C(=O)N3)[C@H](c3ccc(O)cc3)N3[C@H](c4ccccc4)[C@H](c4ccccc4)OC(=O)[C@H]3[C@@H]2C(=O)N2CCc3cc(OC)c(OC)cc3C2)cc1,inactive
27,CC(C)(C)S(=O)N1Cc2cc(C(=O)N[C@@H]3CCN(Cc4ccccc4)C3)nc(-c3cccc(C#CCC4CCCC4)c3)c2[C@@H]1CCO (stereo partly drawn),inactive
28,C[C@H]1CN([C@@H](C)CO)C(=O)c2cccc(NS(=O)(=O)c3cccs3)c2O[C@H]1CN(C)S(=O)(=O)c1cn(C)cn1,inactive
